The other results are listed elsewhere or left out.
What follows are sequences tested against T1, OsWOX13 (Oryza sativa, UniProt Q5QMM3 1-267) (assay: protein-binding microarray (RPBM); PBS, 2% BSA, 51.3 ng/ul salmon testes DNA, 50 uM zinc acetate, 200 nM TF, 25 C, 1 h; high values mean tight binding). Conditions: protein: recombinant; tags: N-terminal polyhistidine and DsRed monomer fusion (pET32a); label: CyDye5-dUTP incorporated in the synthesized complementary strand; 3' TTTTT single-stranded linker to array surface; dsDNA, one strand shown.
T1 sequence: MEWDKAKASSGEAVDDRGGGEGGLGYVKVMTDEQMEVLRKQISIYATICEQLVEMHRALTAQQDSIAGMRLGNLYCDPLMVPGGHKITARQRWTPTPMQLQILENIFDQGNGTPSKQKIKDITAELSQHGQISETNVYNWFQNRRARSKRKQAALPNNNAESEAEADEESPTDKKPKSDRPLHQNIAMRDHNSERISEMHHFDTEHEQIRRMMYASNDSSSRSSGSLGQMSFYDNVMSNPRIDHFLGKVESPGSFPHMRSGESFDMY
In short: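 The binding signal is fluorescence intensity per feature, in arbitrary units, read on an Axon 4000B scanner. Polyhistidine- and DsRed-tagged transcription factors (N-terminal fusions) from E. coli BL21-CodonPlus were purified on Ni–NTA and applied at 200 nM for 1 h at 25 °C to a double-stranded, BSA-blocked custom Agilent array in buffer with 50 µM zinc acetate.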

Sequence	binding signal
ACGTGCTAATTAACTTCTTAAAGAGCTGACCTTAAAATATCGGAGTCACCTAGTGCAG	3190 fluorescence intensity (a.u.)
ATCGAAACGGATGGATGGCAAATTGGCAATATGGCATGGCCGGAGTCACCTAGTGCAG	3560 fluorescence intensity (a.u.)
GCATTGTAATTAATATGGGCAAAATAGGAAATAAACACCCCGGAGTCACCTAGTGCAG	9020 fluorescence intensity (a.u.)
TGAAGATATGGTAATTGGTGTCCATTATGGTATTTCTTAGCGGAGTCACCTAGTGCAG	3930 fluorescence intensity (a.u.)
CAGTAATTGTCACTATCTTATTACACATTATTCTGTCCAGCGGAGTCACCTAGTGCAG	25700 fluorescence intensity (a.u.)
AGGGTCAATCAGTTCCTCCACTTTTGTCACGAGATTAGCGCGGAGTCACCTAGTGCAG	8570 fluorescence intensity (a.u.)
TGTGATTGGTTAAGAAGTGGAGGTAGTTAGGAAAAGTGAACGGAGTCACCTAGTGCAG	31800 fluorescence intensity (a.u.)
GTTGTTAGATGATAAAACATGATTAATATTCTATGCGTGACGGAGTCACCTAGTGCAG	4840 fluorescence intensity (a.u.)
ATTGATTAGTAGTAATTAATTAGTTATAAACTACACGCGCCGGAGTCACCTAGTGCAG	58700 fluorescence intensity (a.u.)
ATTCGTGTCAAATTTAGAACTTAATCGGATGGACTAGTTGCGGAGTCACCTAGTGCAG	3300 fluorescence intensity (a.u.)
CCAAAATAAACAACCAAAATTTCGCCGTGTAACTAACTCTCGGAGTCACCTAGTGCAG	3300 fluorescence intensity (a.u.)
GTACTTGATAGTTCAGTGATAAGGGGTGTGATTTCAACCCCGGAGTCACCTAGTGCAG	4490 fluorescence intensity (a.u.)
GCGAGAGGGGACTGGGGAGGGGAGGGGCGGCGCTCGCTGGCGGAGTCACCTAGTGCAG	6420 fluorescence intensity (a.u.)
AGTGGACAAAATGACATTTGATTACTTTGAAAAGTAACAACGGAGTCACCTAGTGCAG	3920 fluorescence intensity (a.u.)
TTAACATTAACAGATTCATGTATATTTACATGTTTATATACGGAGTCACCTAGTGCAG	3370 fluorescence intensity (a.u.)
CTTTAAATCATTTATAACATCATCTAATATGTCTACAACGCGGAGTCACCTAGTGCAG	14900 fluorescence intensity (a.u.)
CAAATTTAGACGGCTAAGATATCTTCAATCGTGCAGCCCTCGGAGTCACCTAGTGCAG	4620 fluorescence intensity (a.u.)
CTATAATAATTTATTGTGATTTTGTGTACGTTGGTTAGACCGGAGTCACCTAGTGCAG	43500 fluorescence intensity (a.u.)
CATGATTAGGCGTCCAATTACCAAATTCTAAGCCCACAATCGGAGTCACCTAGTGCAG	14700 fluorescence intensity (a.u.)
TTAAAACTTGATTTGGATCAATGCTTTTCTAACGTAGTTTCGGAGTCACCTAGTGCAG	7870 fluorescence intensity (a.u.)
GTCGGAGATTGATAACTCAATATCACTATTTGTGAACTGACGGAGTCACCTAGTGCAG	39000 fluorescence intensity (a.u.)

Sequence	binding signal
CAAGAACCAATAATTTGCAAACTGTAGGGCACAGTTCGATCGGAGTCACCTAGTGCAG	6920 fluorescence intensity (a.u.)
TTTTAAATTTTGAGTTGAAAATTTTCAAATTTGAACTTGACGGAGTCACCTAGTGCAG	3880 fluorescence intensity (a.u.)
GTAATTACGTCTGTATATTATAAACCAGTAAACCACTGCTCGGAGTCACCTAGTGCAG	5390 fluorescence intensity (a.u.)
GAAGGAGATTGGGGAGATTGGGAAGATACGTAAAACGAGGCGGAGTCACCTAGTGCAG	23300 fluorescence intensity (a.u.)
CTTCCAATTTGAGATTTGAAAACTTTCAACTCGAGATTCGCGGAGTCACCTAGTGCAG	4020 fluorescence intensity (a.u.)
CATCAACAGCAATCAGTCAGTCCAGTGTGTATCTGATACTCGGAGTCACCTAGTGCAG	4440 fluorescence intensity (a.u.)
ATAAATTATTGAATCAATGCATTCTATTTATCCTGAGGACCGGAGTCACCTAGTGCAG	23200 fluorescence intensity (a.u.)
ACAGATATTACAGCACTGATTAGCACTTCTCAGGTGTCTTCGGAGTCACCTAGTGCAG	21500 fluorescence intensity (a.u.)
ACCTAATAGCAAATTCTTAATTCCCAACCATAATGTCTTCCGGAGTCACCTAGTGCAG	3350 fluorescence intensity (a.u.)
TTTAATTGATAAATATTATCAATTATTAAACAGATAAGCGCGGAGTCACCTAGTGCAG	62800 fluorescence intensity (a.u.)
AGTTCTTCATCAATATGATTAAGTGTGACATCAGGCCTGACGGAGTCACCTAGTGCAG	5180 fluorescence intensity (a.u.)
CTAAATTTGACTAAGTTTGTAGAAAACAATTAGTAACATTCGGAGTCACCTAGTGCAG	7080 fluorescence intensity (a.u.)
TTACCAGAATTAAAATTCTAATTATCTTGCCGCTTCCAAACGGAGTCACCTAGTGCAG	4610 fluorescence intensity (a.u.)
ATATATATATATATATATATTAAATTTGTTTGGTGCTCCACGGAGTCACCTAGTGCAG	10000 fluorescence intensity (a.u.)
TACTTAATTTCTTTTAAATTGGTTCATATGTGTTTAGTTGCGGAGTCACCTAGTGCAG	49300 fluorescence intensity (a.u.)
AGGCGATTGATATTATCGTTGAACGCTTGGAGAAGGAGTCCGGAGTCACCTAGTGCAG	29900 fluorescence intensity (a.u.)
TCCAGTCAATCAAACGCGTCGACGAACCCAGTCAATACAACGGAGTCACCTAGTGCAG	26800 fluorescence intensity (a.u.)
CACTAATTTCTAGGGCTTGTTTTATCGCCAATAAGTGTAACGGAGTCACCTAGTGCAG	6120 fluorescence intensity (a.u.)
GCAGGTAATTGGGAGGGAATTCCTCCTTTACTTTGTCTAACGGAGTCACCTAGTGCAG	22100 fluorescence intensity (a.u.)
TGGTAATTGAATACGTAAGCCGAACACTATGCTTCTAATACGGAGTCACCTAGTGCAG	25000 fluorescence intensity (a.u.)
AGCAATTAGACAAAGGACTTGATCTGGACTTATATCTAACCGGAGTCACCTAGTGCAG	3840 fluorescence intensity (a.u.)

Sequence	binding signal
TATTTTGCTTAAATGGCTGATTAGTCAAAGCATTTGGCCACGGAGTCACCTAGTGCAG	4720 fluorescence intensity (a.u.)
ATGATAGCAATCAGTTAGACTAACACCCCAACCAAACCCCCGGAGTCACCTAGTGCAG	36100 fluorescence intensity (a.u.)
TTTGATGACTATCATGTCCTACTACGGTATGCAAATTTGTCGGAGTCACCTAGTGCAG	7080 fluorescence intensity (a.u.)
ATTAATCGCAAATTATGAGCCACCAAACCCACTGACTCAACGGAGTCACCTAGTGCAG	8510 fluorescence intensity (a.u.)
ATAAATTGAAGCCTACAGCTGCGTATGTTCAGTACGAGCTCGGAGTCACCTAGTGCAG	29100 fluorescence intensity (a.u.)
GCCCATGAGTACTAATCAATTTCTACATGCAACTAGGAGCCGGAGTCACCTAGTGCAG	7760 fluorescence intensity (a.u.)
CGAAATGGAAGAGATTGAAGATACATGCATGCATGAATCGCGGAGTCACCTAGTGCAG	15700 fluorescence intensity (a.u.)
TCATAATTAATTAGAAGTGGCTGCATGTGAGAATGTTTGGCGGAGTCACCTAGTGCAG	53800 fluorescence intensity (a.u.)
GTTGATTTCCTGAACTAACCTGTCAAATAAAATATTCCCACGGAGTCACCTAGTGCAG	15900 fluorescence intensity (a.u.)
TAGTACACATTAATAATTAATAAATCAGGAACGAAATCTTCGGAGTCACCTAGTGCAG	11000 fluorescence intensity (a.u.)
TTGGGAATTGAAATGCCATTTCCCAAGGATTGAAATGGTGCGGAGTCACCTAGTGCAG	4280 fluorescence intensity (a.u.)
TGGTCATGATTGGTTCAATTTTCTGTTAGCAAGCTACATGCGGAGTCACCTAGTGCAG	42900 fluorescence intensity (a.u.)
AATATTTGTCATTAACTGATCCTGTTGCAAACAATGAATTCGGAGTCACCTAGTGCAG	4570 fluorescence intensity (a.u.)
GCTGATTGCTTCTCAAATTAATTAATTAATGTTGGTAGAACGGAGTCACCTAGTGCAG	41500 fluorescence intensity (a.u.)
CCTATGATTTGGAAATCTTGTAAACCGAATAAGCCCTAAGCGGAGTCACCTAGTGCAG	27600 fluorescence intensity (a.u.)
ATCGCCCACAATTTTCAATTATTATACAGGAAGAAGAAAACGGAGTCACCTAGTGCAG	3240 fluorescence intensity (a.u.)
ATTTCAATCAATCAATTTCTGTTGTTATAATCTAATAGACCGGAGTCACCTAGTGCAG	30400 fluorescence intensity (a.u.)
AGAATTGAACTAATTTTGAGGAAGATGTTGTAAAAGGAGGCGGAGTCACCTAGTGCAG	6920 fluorescence intensity (a.u.)
TGTTATTGACATGCATGCAATAGAACGAGCCGTTCACCGCCGGAGTCACCTAGTGCAG	9140 fluorescence intensity (a.u.)
GTTTGGATTGATTATTGGGACAGTGAAATTGACCATTTGACGGAGTCACCTAGTGCAG	39600 fluorescence intensity (a.u.)
CTCTTGGTTAACTTCTTCTGTGATTTGTCTAGATGAATTTCGGAGTCACCTAGTGCAG	7670 fluorescence intensity (a.u.)

Sequence	binding signal
AATCGACTGATTTGATCGGATACTAAGCAGAACAACGTAACGGAGTCACCTAGTGCAG	8790 fluorescence intensity (a.u.)
AGTGACAGGACCTAATTACAGCAGTATAGTATTAATTAATCGGAGTCACCTAGTGCAG	25500 fluorescence intensity (a.u.)
AACATCGCAATTAAGATCCAGTTAATCTCATTTAGTTACTCGGAGTCACCTAGTGCAG	9150 fluorescence intensity (a.u.)
TTCTTGATGATTCGCATTTTCTCGTTTCTTTCGCGTGAACCGGAGTCACCTAGTGCAG	5840 fluorescence intensity (a.u.)
ATTTAATTATAGCAAATTTTGCTACGCTACTTCGTGGTTCCGGAGTCACCTAGTGCAG	19700 fluorescence intensity (a.u.)
TGTAAATAGATACTAATATATATATTTACCTATTAGTTTACGGAGTCACCTAGTGCAG	5020 fluorescence intensity (a.u.)
ATATGATTAAGCTATGATCCTTTCCTTTATTAGCTCAGCACGGAGTCACCTAGTGCAG	14000 fluorescence intensity (a.u.)
TCACTGTAATTTTGGTATAATTTAATAACTAAATTTGGTACGGAGTCACCTAGTGCAG	25700 fluorescence intensity (a.u.)
TTAAATTGAAGGTTGAAAATTAAAATTTTGGCTGATAAGTCGGAGTCACCTAGTGCAG	22200 fluorescence intensity (a.u.)
ATTGGTCCATTAGCACGTGATTAATTAAGTATTTGCTATTCGGAGTCACCTAGTGCAG	11200 fluorescence intensity (a.u.)
TGCCATGATTGAGTTGTATGACAATAAGATTACATATGATCGGAGTCACCTAGTGCAG	33500 fluorescence intensity (a.u.)
TATAATTAGATCGATCGATCGATCCCTTGTGAGGAGTGGGCGGAGTCACCTAGTGCAG	20100 fluorescence intensity (a.u.)
ATTGTCAAATCATATAGCAATTAGGCTTAAAAGATTCGTACGGAGTCACCTAGTGCAG	10300 fluorescence intensity (a.u.)
CCTAAACATTATTAATGAGAAAAGTTTGTTCGTCGCGGTCCGGAGTCACCTAGTGCAG	10900 fluorescence intensity (a.u.)
TTAATTAAATTAAATCAAACACTATATAAATGCACTATTTCGGAGTCACCTAGTGCAG	29900 fluorescence intensity (a.u.)
GCGCCTTTCAATTTGCAATTATTTCTCTTGCCTATGTTTTCGGAGTCACCTAGTGCAG	10900 fluorescence intensity (a.u.)
GCTGGTTTGATTAGATCTTCATCCCACGTGGCATTGACGTCGGAGTCACCTAGTGCAG	17200 fluorescence intensity (a.u.)
TGGTGATATCAATAGGATTGGAAGAGATTTGTCAGCCTATCGGAGTCACCTAGTGCAG	7200 fluorescence intensity (a.u.)
CCGTTCAATAACAGATTCAGCGACGACAATTCACCGAAGGCGGAGTCACCTAGTGCAG	4440 fluorescence intensity (a.u.)
TTATACGGTTTAATTAAGGTGAAATTCACTGTGAGAATTTCGGAGTCACCTAGTGCAG	4240 fluorescence intensity (a.u.)
TAGAAATTATGAACCAAAATTATTTATTTATTGTGTTCAACGGAGTCACCTAGTGCAG	4490 fluorescence intensity (a.u.)

— publication PMC7819943, “Rice protein-binding microarrays: a tool to detect cis-acting elements near promoter regions in rice”
